Measurements as given in PubChem BioAssay AID1347120 (National Center for Advancing Translational Sciences (NCATS), 2019).
In all, about 390,000 compounds went through this assay and about 930 (0.24%) were called active. The inconclusive results got no clear call from the source; some entries with a clear call stand among them for comparison. The call rests on the fitted dose curve; in most records, active means well fitted activation curve with a large enough effect; inconclusive means small, poorly fitted or top-dose-only effect; inactive means no such curve, though single readings can be large or run the other way. Where the call is inconclusive, the potency comes from a doubtful curve fit.

assay: qHTS for Suppressors of FUS Proteinopathy: Primary screen using FUS-linked yeast assay; further: nearly all actives have a fitted effect of over 55% in size;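 on growth rescue (activation): plate controls were DMSO vehicle for no effect and reference control for full effect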; conditions: S. cerevisiae FUS-expressing, OD600, 24 h; Potency: growth rescue; growth rescue (activation): at 76.6 µM (top of the series)
In short: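 Restored growth of FUS-toxic S. cerevisiae, read as 600 nm absorbance after 24 h at 30C in galactose medium (starting OD 0.005). Controls CP55940 and DMSO.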
Potency means the concentration at half of the fitted maximal effect; tags describe the fitted curve by direction and shape.

SMILES	Potency	growth rescue (activation)
CCC(C)NC(=O)c1sc2nc(C)c(C(=O)Nc3ccc(C)cc3C)c(-c3ccccc3Cl)c2c1N (stereo unspecified)	inconclusive: 28.2 µM [activator, single point]	–
COc1ccc(NC(=O)c2cnc(N3CCCCC3)c3ccccc23)cc1Cl	inconclusive: 28.2 µM [activator, partial curve, poor fit]	–
COc1cc(/C=C/CN2CCC(C(=O)NC(c3ccc(F)cc3)c3ccc4ccccc4n3)CC2)ccc1OC(C)=O (stereo unspecified)	inconclusive: 39.8 µM [activator, single point]	–
COc1ccc(NC(=O)Cn2cc(S(=O)(=O)Cc3ccc(F)cc3)c3ccccc32)cc1OC	–	inactive: 43.2%
CCc1c(O)nc(SCC(=O)Nc2ccccc2)n(-c2ccccc2C)c1=O	inconclusive: 31.6 µM [activator, single point]	–
O=C(c1cc(-c2ccncc2)nc2ccccc12)N1CCN(S(=O)(=O)/C=C/c2ccccc2)CC1	inconclusive: 50.1 µM [activator, single point]	–
COc1ccc(N2CC(NC(=O)COc3ccc4ccccc4c3)CC2=O)cc1OC (stereo unspecified)	–	inactive: 19.1%
C=CCNCCOCCOc1ccccc1-c1ccccc1	–	inactive: -18.2%
COc1ccc(S(=O)(=O)N2CC(O)CC2C(=O)OCc2nc3sc(C)c(C)c3c(=O)[nH]2)cc1 (stereo unspecified)	inconclusive: 25.1 µM [activator, partial curve, poor fit]	–
COc1ccc(-c2ccc(CCC(=O)O)n2CC(=O)Nc2cccc(OC)c2)cc1	inconclusive: 35.5 µM [activator, partial curve, poor fit]	–
Cc1ccc2c(c1)c(-c1csc(N)n1)c(C)n2C	inconclusive: 20 µM [activator, single point]	–
CN(C)CCN(C(=O)c1ccc2c(c1)OCCO2)c1nc2ccc(Cl)cc2s1	–	inactive: 20.6%
C=CCc1cccc(CNc2nc3ccccc3n2CCN2CCOCC2)c1O	–	inactive: 26.1%
COc1ccccc1CNC(=O)c1oc2ccc3c(c2c1C)C(=O)CC(C)(C)O3	inconclusive: 25.1 µM [activator, single point]	–
CC(=O)Nc1ccc(NC(=O)CCS(=O)(=O)c2ccc3c(c2)CC(=O)N3C)cc1	inconclusive: 31.6 µM [activator, single point]	–
COc1ccc(-c2nnc(SCc3cccc(F)c3)n2-c2ccccc2)cc1	inconclusive: 31.6 µM [activator, partial curve, poor fit]	–
COC(=O)Nc1ccc(S(=O)(=O)N2CCC(C(=O)N(C)C3CCCCC3)CC2)cc1	inconclusive: 25.1 µM [activator, partial curve, poor fit]	–
O=S(=O)(c1ccc2c(c1)OCCO2)N1CCC(n2cnc3cc(F)ccc32)CC1	inconclusive: 39.8 µM [activator, single point]	–
O=C(NC(=S)Nc1ncc(Br)cc1Br)c1cncc(Br)c1	–	inactive: 28.5%
NC(=O)c1nn(CC(=O)Nc2cccc(S(=O)(=O)N3CCCCCC3)c2)c(=O)c2ccccc12	inconclusive: 31.6 µM [activator, single point]	–
O=C(N/N=C/c1ccco1)c1cc(-c2cccc3ccccc23)n[nH]1	inconclusive: 17.8 µM [activator, partial curve, poor fit]	–

SMILES	Potency	growth rescue (activation)
COCCCNC(=O)C[C@H]1C[C@@]2(C(=O)OC)C(=C[C@H](C(C)(C)C)O[C@@H]2C)N(Cc2ccc(Cl)cc2Cl)C1=O	inconclusive: 25.1 µM [activator, partial curve, poor fit]	–
Cc1ccc(C)c(NS(=O)(=O)c2cc(C(=O)NCCSC3CCCCC3)ccc2C)c1	–	inactive: 18.6%
CC1=C(C(=O)OC2CCCCCC2)C(c2cccc(Cl)c2)CC(=O)N1 (stereo unspecified)	–	inactive: 13.6%
Cc1cccn2c(=O)c(/C=C(\C#N)C(=O)NCc3ccco3)c(N3CCCCCC3)nc12	inconclusive: 50.1 µM [activator, single point]	–
O=C(CN1CCc2ccccc2C1)Nc1ccc(OC(F)(F)F)cc1	–	inactive: 14.7%
COc1cc(C2C(C(=O)c3ccc(C)o3)=C(O)C(=O)N2c2cc(C)on2)cc(Br)c1O (stereo unspecified)	inconclusive: 7.08 µM [activator, full curve]	–
COc1ccc(C(=O)/C=C/Nc2cc(C)on2)c(OC)c1	–	inactive: 20.2%
COc1cc(-c2noc(CCCC(=O)NC3CCCCC3)n2)cc(OC)c1OC	–	inactive: 37.1%
CC1CCN(C(=O)c2cccc(NC(=O)c3nsc4ccccc34)c2)CC1	inconclusive: 25.1 µM [activator, single point]	–
COc1ccc(C(=O)Nc2nc(-c3ccc(S(=O)(=O)N4CCOCC4)cc3)cs2)cc1	inconclusive: 11.2 µM [activator, partial curve]	–
CC(=O)c1ccc(NC(=O)c2ccccc2Sc2ncnc3sc(C)c(C)c23)cc1	inconclusive: 28.2 µM [activator, partial curve, poor fit]	–
Cc1cc(C)n(CC(=O)NNC(=O)C2CC(=O)N(Cc3ccccc3Cl)C2)n1 (stereo unspecified)	–	inactive: 5.86%
CCOC(=O)C(Cc1ccnnc1)=NO	–	inactive: 23%
Cc1cccc(-c2nc(CSCC(=O)NCc3cccs3)c(C)o2)c1	inconclusive: 50.1 µM [activator, partial curve, poor fit]	–
CCCCn1c(-c2ccc(C(C)(C)C)cc2)nc2cc3[nH]c(=O)c(C(C)C)nc3cc21	inconclusive: 28.2 µM [activator, single point]	–
O=Cc1ccc(-n2cc(C=O)c3ccccc32)cc1	–	inactive: 12%
O=S(=O)(Nc1ccc(S(=O)(=O)Nc2cccc3ccccc23)cc1)c1ccccc1	inconclusive: 35.5 µM [activator, partial curve, poor fit]	–
CC(C)(C)c1ccc(S(=O)(=O)NC(=O)C2(C)CCN2C(=O)Cc2ccc(-c3ccccc3)cc2)cc1 (stereo unspecified)	inconclusive: 15.8 µM [activator, partial curve, poor fit]	–
CCOC(=O)c1c(Oc2ccc(C(C)=O)cc2)nnc(-c2ccccc2)c1-c1ccccc1	inconclusive: 35.5 µM [activator, single point]	–
O=C(CN1CCCCC1)Nc1nnc(-c2ccc([N+](=O)[O-])cc2)s1	inconclusive: 28.2 µM [activator, partial curve]	–
